Measurements reported in PubChem BioAssay AID463173 (ICCB-Longwood Screening Facility, Harvard Medical School, 2010).
About 1,700 (3.3%) of roughly 52,000 compounds were called active. Rule as the data show it: active = survival mostly below about 52% (no sharp cut-off); inactive = mostly above about 56%. The list shows a part of the results.

What follows are compounds tested on Wild type (assay: growth inhibition of S. aureus wild type versus tarO mutant, primary screen, teichoic acid synthesis inhibitors, RN4220, OD600 (AID 463173)). Settings: S. aureus RN4220 wild type/DeltatarO growth, OD600, 18 h, active compounds read low, screened at 18.75 µg/mL (by protocol).
With `COc1cccc(CCNC(=O)c2ccc(Cn3c(SCc4ccccc4)nc4cccnc43)cc2)c1` the survival was inactive: 87%. With `CCOc1ccc(NC(=O)NC(C)c2c(-n3cccc3)sc3c2CCN(CC)C3)cc1` (stereo not given) the survival was inactive: 80%. In the case of `CCOc1ccc(NC(=O)Cn2cc(C(=O)c3ccc(F)cc3)c(=O)c3cc4c(cc32)OCO4)cc1`, the survival is reported as inactive: 78%. For `CCOc1ccc2[nH]c(=S)c(C#N)cc2c1`, the survival was inactive: 110%. `COc1ccc(-c2nc3ccccc3n2Cc2ccc(C(C)C)cc2)cc1` was tested, and the survival was active: -8%. `N#C/C(=C\c1ccco1)C(=O)Nn1cnnc1` was tested, and the survival was inactive: 101%. In the case of `Cc1ccccc1NC(=O)C1CCN(C(=O)c2ccc(F)cc2)CC1`, the survival is reported as inactive: 82%. For `COc1cccc(C(=O)NCC(C)C)c1`, the survival was inactive: 109%. With `Cc1ccc(C)c(Nc2nn3c(=O)c4ccc(C(=O)NCCC5=CCCCC5)cc4nc3s2)c1` the survival was inactive: 97%. In the case of `Cc1ccc(N2CC(C(=O)NCCS(=O)(=O)N3CCN(c4ccccc4)CC3)CC2=O)cc1C` (stereo not given), the survival is reported as inactive: 72%. In the case of `CC(C)c1ccc(-c2noc(SCC(=O)N3CCN(c4ccc(F)cc4)CC3)n2)cc1`, the survival is reported as inactive: 73%. In the case of `CCOc1ccc(OCc2ccc(C(=O)Nc3cc(OC)c(OC)c(OC)c3)o2)cc1`, the survival is reported as inactive: 74%. In the case of `Cc1ccc(C)c(NC(=O)N(C)CCc2c(C)nn(C)c2C)c1`, the survival is reported as inactive: 56%. `O=C(CCc1ccccc1)N(Cc1cccnc1)c1nc2c(F)cc(F)cc2s1` was tested, and the survival was inactive: 131%. In the case of `COc1ccc(CCNS(=O)(=O)c2cc(-c3cc(C)no3)ccc2OC)cc1OC`, the survival is reported as inactive: 75%. With `Cc1ccc(C(=O)Nc2nc3nc(C)cc(=O)n3[nH]2)cc1` the survival was inactive: 89%. With `CCN(CC)CCNc1ncnc2c1cnn2-c1cc(Cl)ccc1C` the survival was inactive: 98%. In the case of `CCNc1nc(N)nc(Oc2ccc(OCC(=O)OC)nn2)n1`, the survival is reported as inactive: 106%. `CCOc1ccc(-c2nc(CNC(=O)NC3CCCCC3)c(C)o2)cc1` was tested, and the survival was inactive: 138%. In the case of `CCOc1ccccc1C(=O)Nc1cccc2ccc(C)nc12`, the survival is reported as inactive: 49%. In the case of `COc1cccc(CNC(=O)CSc2nc(=O)[nH]c3c2CCC3)c1`, the survival is reported as inactive: 77%. In the case of `CCCN(C(=O)C(=O)Nc1ccc2nc3n(c(=O)c2c1)CCCCC3)c1ccc(OCC)cc1`, the survival is reported as inactive: 76%. With `COc1ccc(CCNc2nc3ccc(Cl)cc3n3cnnc23)cc1OC` the survival was inactive: 85%. With `Cc1cccc2nc(-c3ccc(N(C)C)cc3)c(Nc3ccc4c(c3)OCO4)n12` the survival was inactive: 90%. With `O=C(NCCc1csc(-c2ccc(Cl)cc2)n1)c1ccco1` the survival was inactive: 70%. In the case of `CC(SC(=S)N1CCCCCC1)C(=O)O` (stereo not given), the survival is reported as inactive: 108%. In the case of `O=C1c2ccccc2C(=O)N1CC(O)CN1CCOCC1` (stereo not given), the survival is reported as inactive: 108%. `COC(=O)c1c(NC(=O)Cc2cccs2)sc2c1CCCC2` was tested, and the survival was inactive: 113%. `COc1ccccc1-c1nnc(C2CCN(C(=O)c3cccc(Cl)c3)CC2)o1` was tested, and the survival was inactive: 82%. `CCOC(=O)c1ccccc1NC(=O)Cn1c(=O)n(CCC(=O)N2CCc3ccccc3C2)c(=O)c2ccccc21` was tested, and the survival was inactive: 88%. `Cc1cccc(C(c2sc3nc(-c4ccco4)nn3c2O)N2CCN(Cc3ccccc3)CC2)c1` (stereo not given) was tested, and the survival was inactive: 128%. `COc1cc(NC(=O)c2cc(Cl)ccc2Cl)ccc1NC(=O)c1cc2ccccc2o1` was tested, and the survival was inactive: 80%. For `COc1cc(C2CC(=O)c3c([nH]c(C(=O)OCc4ccc(C)cc4)c3C)C2)cc(OC)c1OC` (stereo not given), the survival was inactive: 82%. In the case of `Cc1ccccc1NC(=O)Cn1c(=O)n(CCCCCC(=O)NCc2ccccc2Cl)c(=O)c2sccc21`, the survival is reported as inactive: 129%. With `COCCCNC(=O)c1[nH]c2ccccc2c1Sc1ccc(C)cc1` the survival was inactive: 81%. With `CN(C)c1ccc(CNC(=O)c2cnc3sc(N4CCCC4)nn3c2=O)cc1` the survival was inactive: 73%. For `Brc1ccc(-c2csc(NN=C3CCCC3)n2)cc1`, the survival was inactive: 66%. For `CCS(=O)(=O)N1CCc2cc(C(=O)NCc3ccc(Cl)cc3)ccc21`, the survival was inactive: 87%. In the case of `CC(Sc1nnc(-c2ccccc2Br)o1)C(=O)Nc1cccc(Cl)c1` (stereo not given), the survival is reported as inactive: 101%. In the case of `COc1ccc2c(c1)C(C)=CC(C)(C)N2C(=O)Cn1cnc2c(cnn2-c2ccccc2)c1=O`, the survival is reported as inactive: 101%. With `O=C(Cc1ccccc1)N(Cc1cccnc1)c1nc2ccc(Cl)cc2s1` the survival was inactive: 59%. In the case of `CC(=O)c1cccc(NC(=O)CSc2nnc3ccc(-c4ccc(F)cc4)nn23)c1`, the survival is reported as inactive: 69%. `CCCOc1ccc(C(=O)Nc2ccc3oc(-c4ccc5ccccc5c4)nc3c2)cc1` was tested, and the survival was inactive: 132%. In the case of `COc1ccc(NC(=O)c2ccc3c(SCC(=O)O)c4c(nc3c2)CCCC4)cc1OC`, the survival is reported as inactive: 126%. `O=C(Nc1ccc(Br)cc1F)c1cc(S(=O)(=O)NC2CCCC2)ccc1F` was tested, and the survival was inactive: 131%. `CCOC(=O)c1cccc(-n2nnc3c(sc4nc(C)c(Br)c(C)c43)c2=O)c1` was tested, and the survival was inactive: 87%. `Cc1sc2ncn(CC(=O)Nc3ccc(F)cc3Cl)c(=O)c2c1S(=O)(=O)N1CCN(c2ncccn2)CC1` was tested, and the survival was inactive: 82%. With `O=C(NC1CCCCC1)C1CCCN1C(=O)NCc1ccccc1` (stereo not given) the survival was inactive: 100%. With `O=C(NCCc1ccccc1)c1cc(-c2ccc(Br)cc2)on1` the survival was inactive: 79%. In the case of `CCOC(=O)c1c(C)oc2ncnc(N3CCN(c4ccc(C)cc4C)CC3)c12`, the survival is reported as inactive: 88%. For `Cc1cc(C)n(C(=O)c2ccoc2C)n1`, the survival was inactive: 105%. In the case of `CCn1c(CNC(=O)c2ccccc2F)nnc1SCC(=O)NC1CCCCC1C` (stereo not given), the survival is reported as inactive: 95%. `CCOC(=O)c1ccccc1NC(=O)Cn1c(=O)n(CCC(=O)NCc2ccccc2OC)c(=O)c2ccccc21` was tested, and the survival was inactive: 94%. `Cn1c(=O)c2c(nc(Oc3ccc(C#N)cc3)n2Cc2ccc(Cl)cc2Cl)n(C)c1=O` was tested, and the survival was inactive: 118%. `COc1cccc(-c2nnc3n(Cc4ccc(C)cc4)c(=O)c4ccccc4n23)c1O` was tested, and the survival was inactive: 86%. In the case of `CCCCN(Cc1cccs1)S(=O)(=O)c1cc(-c2cc(C)no2)ccc1C`, the survival is reported as inactive: 67%. With `CCN1CCN(c2csc3ccc(F)cc3c2=O)CC1` the survival was inactive: 71%. With `Cc1cccn2c(=O)cc(CSc3nnc(NC(=O)COc4ccc(F)cc4)s3)nc12` the survival was active: -4%. `COc1ccc(-c2nc3scc(CCNS(=O)(=O)c4c(C)noc4C)n3n2)cc1OC` was tested, and the survival was inactive: 123%. In the case of `COc1cccc(CNC(=O)c2[nH]c3cc(C)ccc3c2Sc2ccccc2)c1`, the survival is reported as inactive: 87%. In the case of `CCOC(=O)c1c(S(=O)(=O)NCC(=O)N2CCN(c3cccc(Cl)c3)CC2)c(C)n(C)c1C`, the survival is reported as inactive: 117%. For `Cc1cccc(NC(=O)CSc2nnc3scc(-c4ccccc4)n23)c1`, the survival was inactive: 44%. For `COCCn1c(C)cc(C=C2C(=O)NC(=O)NC2=O)c1C`, the survival was inactive: 100%. `COc1ccccc1NC(=O)c1oc2ccccc2c1NC(=O)C(C)C` was tested, and the survival was inactive: 86%. For `O=C1CCc2cc(S(=O)(=O)NCc3ccc(Cl)cc3)cc3c2N1CC3`, the survival was inactive: 98%. With `COc1cccc(-c2nnc(-c3cc4cc(Cl)ccc4oc3=O)o2)c1` the survival was inactive: 132%. For `COc1cc(-c2noc(CSc3nc(-c4ccc(F)cc4)cc(=O)[nH]3)n2)cc(OC)c1OC`, the survival was inactive: 69%. `Cc1ccccc1CNC(=O)c1ccccc1NC(=O)c1nsc2ccccc12` was tested, and the survival was inactive: 120%. `CC(C)(C)c1ccc(CSc2nc3c(c(=O)[nH]2)CCCC3)cc1` was tested, and the survival was inactive: 111%. With `O=C(Nc1ccc(Cl)c(C(F)(F)F)c1)C1CCCN(S(=O)(=O)c2cccc3cccnc23)C1` (stereo not given) the survival was inactive: 65%. With `CC1CCN(S(=O)(=O)c2ccc3c(c2)c(=O)c(C(=O)NCc2ccc(Cl)cc2)cn3C)CC1` the survival was inactive: 84%. In the case of `COc1ccccc1NC(=O)Cn1cnc2c(nc3n2CCCCC3)c1=O`, the survival is reported as inactive: 72%. In the case of `CCCCc1c(C(=O)O)cccc1C(=O)O`, the survival is reported as inactive: 126%. For `CCC1CCC(C(=O)NC(C(=O)NCCN(CC(C)C)CC(C)C)C(C)C)CC1` (stereo not given), the survival was inactive: 70%. For `CCOc1ccc(Nc2c(S(=O)(=O)c3ccc(Cl)cc3)cnc3ccc(OC)cc23)cc1`, the survival was inactive: 88%. For `COCCN(Cc1cc2ccc(C)c(C)c2nc1Cl)C(=O)N1CCOCC1`, the survival was inactive: 104%. In the case of `O=C(Nc1ccc(F)cc1)N1CCN(c2ccc3nnc(-c4ccc(F)cc4)n3n2)CC1`, the survival is reported as inactive: 81%. With `Cc1ccc(-n2nnc(-c3nsc(NC(=O)c4ccccc4C)n3)c2C)cc1Cl` the survival was inactive: 159%. For `Cc1ccc(CNC(=O)C2CCN(C(=O)c3ccc(-n4ccc5ccccc54)s3)CC2)cc1`, the survival was inactive: 56%. With `COc1ccc(-c2cn3c(n2)sc2cc(C(=O)NCc4cccs4)ccc23)cc1` the survival was inactive: 70%. `COc1ccc(-c2c3c(=O)n(C)c(=O)n(C)c3cn2-c2cccc(N)c2)cc1` was tested, and the survival was inactive: 83%. With `CCOC(=O)CC(NC(=O)CCc1c(C)nc2c(-c3ccccc3)c(C)nn2c1C)c1ccc(C)cc1` (stereo not given) the survival was inactive: 98%. `COc1cccc(CN2C(=O)N(c3ccc(C)cc3)C(=O)C2CC(=O)Nc2cc(OC)cc(OC)c2)c1` (stereo not given) was tested, and the survival was inactive: 148%. For `COc1ccc(Cn2ccc3nc(C)c(C(=O)Nc4ccc(F)cc4)cc3c2=O)cc1`, the survival was active: -3%. `COCCCNC(=O)c1[nH]c2cc(OC)ccc2c1Sc1ccc(C)cc1` was tested, and the survival was inactive: 122%. With `CCn1cc(C(=O)NCCc2ccc(Cl)cc2)c(=O)c2cc(S(=O)(=O)N3CCc4ccccc4C3)ccc21` the survival was inactive: 75%. For `COCCn1c(=S)[nH]c2ccccc2c1=O`, the survival was inactive: 105%. For `Cc1cccc(NC(=O)CSc2nc3ccc(NC(=O)COc4ccc(Cl)cc4)cc3s2)c1`, the survival was inactive: 85%. For `Cc1c(NC(=O)Cc2ccc(F)cc2)cccc1-c1nc2cccnc2s1`, the survival was inactive: 89%. With `O=C(Nc1nnc(SCc2cc(=O)c3ccccc3[nH]2)s1)c1ccccc1` the survival was inactive: 85%.
